# The campaign covered roughly 310,000 compounds. About 2,200 (0.71%) showed an effect of 50% or more. Effects have a minus sign here. This is one part of the list.
# Target: human ether-à-go-go-related gene (hERG) potassium channel (human, UniProt Q12809)
# Test: primary screen, population patch clamp on CHO cells stably expressing hERG
# Chain of human ether-à-go-go-related gene (hERG) potassium channel (Q12809 whole entry, looked up): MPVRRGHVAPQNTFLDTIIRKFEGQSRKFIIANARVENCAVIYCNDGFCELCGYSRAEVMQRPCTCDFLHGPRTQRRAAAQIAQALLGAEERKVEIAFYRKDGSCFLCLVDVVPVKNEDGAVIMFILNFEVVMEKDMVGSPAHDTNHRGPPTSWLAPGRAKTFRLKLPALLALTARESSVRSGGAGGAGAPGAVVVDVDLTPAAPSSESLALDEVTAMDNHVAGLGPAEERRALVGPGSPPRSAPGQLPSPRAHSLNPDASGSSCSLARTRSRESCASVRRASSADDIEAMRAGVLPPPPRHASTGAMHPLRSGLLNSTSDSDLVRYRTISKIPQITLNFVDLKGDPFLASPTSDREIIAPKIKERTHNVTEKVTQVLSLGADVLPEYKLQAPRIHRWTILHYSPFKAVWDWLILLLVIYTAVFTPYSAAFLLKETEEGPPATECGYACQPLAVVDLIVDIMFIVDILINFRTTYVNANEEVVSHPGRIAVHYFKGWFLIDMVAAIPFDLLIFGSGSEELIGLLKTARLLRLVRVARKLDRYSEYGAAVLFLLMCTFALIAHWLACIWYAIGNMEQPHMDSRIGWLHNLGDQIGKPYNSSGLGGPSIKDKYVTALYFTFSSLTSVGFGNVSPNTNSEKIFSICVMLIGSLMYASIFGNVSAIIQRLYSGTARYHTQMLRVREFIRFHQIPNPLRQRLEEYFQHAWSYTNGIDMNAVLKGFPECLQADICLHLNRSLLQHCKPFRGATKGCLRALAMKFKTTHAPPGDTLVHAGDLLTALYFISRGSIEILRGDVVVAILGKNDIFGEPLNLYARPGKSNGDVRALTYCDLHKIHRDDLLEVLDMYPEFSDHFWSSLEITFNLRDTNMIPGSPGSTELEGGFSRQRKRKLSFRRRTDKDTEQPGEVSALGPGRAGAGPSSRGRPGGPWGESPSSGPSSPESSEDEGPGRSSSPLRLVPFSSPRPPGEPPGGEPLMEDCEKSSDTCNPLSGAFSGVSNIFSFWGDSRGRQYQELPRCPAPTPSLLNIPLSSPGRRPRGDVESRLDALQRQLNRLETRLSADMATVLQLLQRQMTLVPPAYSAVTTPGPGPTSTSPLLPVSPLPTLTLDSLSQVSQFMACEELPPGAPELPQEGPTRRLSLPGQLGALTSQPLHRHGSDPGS
row,Compound,"hERG current change (%, negative = inhibition) at 1uM [%]"
1,CC(C)(C)N(Cc1ccccc1)C(=O)COC(=O)CCc1c[nH]c2ccccc12,10.4
2,Cc1ccc(CN(C(=O)Cc2cccs2)C(C(=O)NC2CCCC2)c2ccncc2)cc1 (stereo not drawn),-5.88
3,COc1ccc(C(=O)NC(=O)COC(=O)C2COc3ccccc3O2)cc1 (stereo not drawn),4.15
4,CCC(C)(c1ccc(C(=O)OC)s1)c1ccc(C(=O)OC)s1,5.28
5,CN(C(=O)CCN1C(=O)/C(=C/c2ccccc2F)SC1=S)C1CCS(=O)(=O)C1 (stereo not drawn),5.42
6,Nc1c(Cl)ncnc1N/N=C/c1cccnc1,9.7
7,Clc1cccc(CSc2ccc(-c3ccco3)nn2)c1,12.3
8,NS(=O)(=O)c1ccc2nc(-c3ccccc3)c(-c3ccccc3)nc2c1,-1.42
9,CC(C)NC(=O)CC1(C(=O)NCc2ccc(Cl)cc2)CCCC1,19.8
10,CCS(=O)(=O)N1CCN(C(=O)c2cccc(OC)c2)CC1,4.65
11,COc1ccc(NC(=O)CSc2nncn2N)c(OC)c1,15.7
12,CCC(=O)NNc1nc2c(F)cc(F)cc2s1,11.4
13,Cc1nc2ccccc2nc(C)c1=NOCc1ccc(Cl)cc1Cl,0.014
14,CC(C)N(O)C(=O)NC(C)(C)C,7.03
15,COc1ccc(OC)c(S(=O)(=O)Nc2cc(Cl)cc(Cl)c2)c1,-4.43
16,C=CCn1c(=O)c2c(C)c(C)sc2n2c(Nc3ccccc3)nnc12,14.9
17,COc1cccc(CN2CC(C(=O)NCc3ccc(C)c(F)c3)CCC2=O)c1 (stereo not drawn),-0.169
18,Nc1ccc(NS(=O)(=O)c2ccccc2)cc1,6.65
19,O=c1[nH]c(=O)n(Cc2ccc(F)cc2)c(O)c1C=NCc1cccnc1,10.8

row,Compound,"hERG current change (%, negative = inhibition) at 1uM [%]"
1,CCCOc1ccc(/C(O)=C2/C(=O)C(=O)N(CCCn3ccnc3)C2c2ccco2)cc1 (stereo not drawn),8.29
2,CCOc1cc(C(=O)Nc2ccc(F)cc2)cc(Br)c1OC,14.8
3,O=C(Nc1ccc(F)c(F)c1)C1CCCN(S(=O)(=O)c2cccc3nonc23)C1 (stereo not drawn),10.9
4,Cc1ccc(S(=O)(=O)N2CCCC2C(=O)OCc2nc3sc(C)c(C)c3c(=O)[nH]2)cc1 (stereo not drawn),22.3
5,CCCc1cc(=O)oc2c(C)c(OCC(=O)NCCCN3CCOCC3)ccc12,-2.86
6,O=C(NCc1nnnn1-c1ccc(F)c(F)c1)C(=O)c1c[nH]c2ccccc12,14.5
7,C=CCNC(=S)N/N=C/c1ccc(C(F)(F)F)cc1,9.95
8,O=C(NCCCN1CCCC1=O)c1cccc(Oc2ccccc2)c1,16.4
9,COc1ccc(CNC(=O)C2(CC3CC(c4ccccc4)=NO3)CCN(C(=O)C3(C)CC3)CC2)cc1 (stereo not drawn),-37.1
10,Cc1nn(CC(=O)NCCc2ccccc2)c(=O)c2cccn12,11.4
11,O=C(Cn1ccnc1)c1ccc(Cl)cc1,11.7
12,Cc1ccc(C(=O)O/N=C2\CCS(=O)(=O)c3sccc32)cc1,13.8
13,Cc1nn(C)cc1-c1n[nH]c(=S)n1-c1ccc(Cl)cc1,12.4
14,Cc1ccc(C(NC(=O)/C=C\c2ccc3c(c2)OCO3)C(=O)Nc2ccc3c(c2)OCO3)cc1 (stereo not drawn),4.58
15,O=C(C1CCN(S(=O)(=O)c2cccc3nonc23)CC1)N1CCCCC1,14.4
16,COc1ccc(C(=O)C2CCCN(C(=O)c3cccc(Cn4cccn4)c3)C2)cc1F (stereo not drawn),-10.1
17,O=C(Nc1cccc(-c2cn3c(n2)SCC3)c1)c1ccc2c(c1)OCO2,8.4
18,Cc1ccc(NC(=O)Cc2cccs2)cc1Cl,15.5
19,N=C1C(c2ccccc2)=C(O)CN1c1ccccc1N1CCOCC1,7.03

row,Compound,"hERG current change (%, negative = inhibition) at 1uM [%]"
1,COc1ccccc1NC(=O)C1CCCN(c2cnccn2)C1 (stereo not drawn),14.1
2,CCOC(=O)C1=C(CSc2nc3c(cc2C#N)CCC3)OC(N)=C(C#N)C1c1ccccc1.CN(C)C=O (stereo not drawn),13.6
3,CN(C)S(=O)(=O)c1cccc(NC(=O)COC(=O)/C=C/c2cccs2)c1,3.98
4,CC1(C)CC(=O)C([N+](=O)[O-])=C(NCCCC(=O)O)C1.O,15.8
5,CCOc1cc(/C=C(\C#N)c2[nH]nc(N)c2C#N)ccc1O,-1.26
6,CCOc1ccc(CN(C)C(C)C(=O)Nc2ccc([N+](=O)[O-])cc2Cl)cc1OC (stereo not drawn),-4.68
7,CCOc1ccccc1C(=O)NC1CC2CCCC(C1)N2Cc1ccccc1 (stereo not drawn),-32.9
8,Cc1cccc(C)c1NC(=O)Cn1nc(-c2ccccc2)nc1-c1ccccc1,14.3
9,Cc1c(C(=O)O)cnc2cc(-c3ccc(Cl)cc3)nn12,16.9
10,O=C(O)CCc1nc(-c2ccc(Cl)cc2)no1,10.2
11,COc1cccc2sc(N3CCN(c4nc5ccccc5s4)CC3)nc12,7.25
12,COc1ccc2cc(N=Cc3nc(-c4ccc(C)cc4)oc3O)cnc2c1,4.77
13,CCOc1ccccc1N(CC(=O)Nc1cccnc1)S(=O)(=O)c1ccc(C)cc1,8.87
14,CCCN1CCN(c2ncnc3c2nnn3Cc2ccccc2)CC1,-3.01
15,O=C(C1=C(O)C(=O)N(CCCn2ccnc2)C1c1ccc(F)cc1)c1ccco1 (stereo not drawn),14.9
16,CCC/C(O)=C1\C(=O)CCCC1=NCCCCCC(=O)O,14.2
17,COc1ccc(-c2nn(-c3ccccc3)cc2/C=C\C(=O)N2CCOCC2)cc1[N+](=O)[O-],-19
18,COC(=O)c1ccccc1NC(=O)C1CCCCC1C(=O)O (stereo not drawn),5.64
19,O=C(NC1=NCCS1)c1ccccc1,21

# — paper PMC4336329 (PLoS ONE, 2015)
